Measurements as given in the supplement of paper PMC8728848.
The list shows a part of the results.

Key:
Experiment in all cases: glycan array binding signal (z-score within array); higher = stronger binding
Conditions in all cases: glycan notation: IUPAC condensed, linker removed
[1] = target: GlcNAc(b1-4)GlcNAc(b1-4)GlcNAc
Method in brief: (§1)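 From the Consortium for Functional Glycomics database, 3228 arrays were curated, keeping only those whose protein sequence was available. Binding is given as a within-array Z-score averaged across arrays sharing a protein sequence and across linkers. Negative Z-scores can be read as non-binding.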

[2] = target: GlcNAc(b1-4)GlcNAc(b1-4)GlcNAc(b1-4)GlcNAc(b1-4)GlcNAc
Method in brief: as §1

[3] = target: GlcNAc(b1-4)GlcNAc(b1-4)GlcNAc(b1-4)GlcNAc(b1-4)GlcNAc(b1-4)GlcNAc
Method in brief: as §1

[4] = target: GlcNAc(b1-4)[GlcNAc(b1-6)]GalNAc
Method in brief: as §1

[5] = target: GlcNAc(b1-6)Gal(b1-4)GlcNAc
Method in brief: as §1

GlcNAc(b1-6)GalNAc = target: GlcNAc(b1-6)GalNAc
Method in brief: as §1

GlcNAc3Prop(b1-4)GlcNAc = target: GlcNAc3Prop(b1-4)GlcNAc
Method in brief: as §1

[6] = target: GlcNAc6S(b1-3)Gal(b1-4)GlcNAc
Method in brief: as §1

Kdn(a2-3)Gal(b1-3)GalNAc = target: Kdn(a2-3)Gal(b1-3)GalNAc
Method in brief: as §1

Kdn(a2-3)Gal(b1-3)GlcNAc = target: Kdn(a2-3)Gal(b1-3)GlcNAc
Method in brief: as §1

Kdn(a2-3)Gal(b1-4)Glc = target: Kdn(a2-3)Gal(b1-4)Glc
Method in brief: as §1

Kdn(a2-3)Gal(b1-4)GlcNAc = target: Kdn(a2-3)Gal(b1-4)GlcNAc
Method in brief: as §1

[7] = target: Kdn(a2-3)Gal(b1-4)[Fuc(a1-3)]GlcNAc
Method in brief: as §1

Kdn(a2-6)Gal(b1-4)GlcNAc = target: Kdn(a2-6)Gal(b1-4)GlcNAc
Method in brief: as §1

[8] = target: Man(a1-2)Man(a1-2)Man(a1-3)Man
Method in brief: as §1

[9] = target: Man(a1-2)Man(a1-2)Man(a1-6)[Man(a1-3)]Man
Method in brief: as §1

Man(a1-2)Man(a1-3)Man = target: Man(a1-2)Man(a1-3)Man
Method in brief: as §1

[10] = target: Man(a1-2)Man(a1-3)[Man(a1-2)Man(a1-6)]Man
Method in brief: as §1

[11] = target: Man(a1-2)Man(a1-3)[Man(a1-2)Man(a1-6)]Man(a1-6)[Man(a1-2)Man(a1-2)Man(a1-3)]Man
Method in brief: as §1

[12] = target: Man(a1-2)Man(a1-3)[Man(a1-2)Man(a1-6)]Man(a1-6)[Man(a1-2)Man(a1-2)Man(a1-3)]Man(b1-4)GlcNAc(b1-4)GlcNAc
Method in brief: as §1

[13] = target: Man(a1-2)Man(a1-3)[Man(a1-6)]Man(a1-6)[Man(a1-2)Man(a1-3)]Man(b1-4)GlcNAc(b1-4)GlcNAc
Method in brief: as §1

[14] = target: Man(a1-2)Man(a1-6)[Man(a1-3)]Man(a1-6)[Man(a1-2)Man(a1-2)Man(a1-3)]Man
Method in brief: as §1

[15] = target: Man(a1-2)Man(a1-6)[Man(a1-3)]Man(a1-6)[Man(a1-2)Man(a1-2)Man(a1-3)]Man(b1-4)GlcNAc(b1-4)GlcNAc
Method in brief: as §1

Man(a1-3)[Man(a1-6)]Man = target: Man(a1-3)[Man(a1-6)]Man
Method in brief: as §1

[16] = target: Man(a1-3)[Man(a1-6)]Man(a1-6)[Man(a1-2)Man(a1-3)]Man(b1-4)GlcNAc(b1-4)GlcNAc
Method in brief: as §1

[17] = target: Man(a1-3)[Man(a1-6)]Man(a1-6)[Man(a1-3)]Man
Method in brief: as §1

[18] = target: Man(a1-3)[Man(a1-6)]Man(a1-6)[Man(a1-3)]Man(b1-4)GlcNAc(b1-4)GlcNAc
Method in brief: as §1

[19] = target: Man(a1-3)[Man(a1-6)]Man(b1-4)GlcNAc(b1-4)GlcNAc
Method in brief: as §1

Man(a1-6)Man = target: Man(a1-6)Man
Method in brief: as §1

Man(b1-4)GlcNAc = target: Man(b1-4)GlcNAc
Method in brief: as §1

B1: Neuropilin-2 (Homo sapiens), O60462 (protein)
chain: MDMFPLTWVFLALYFSRHQVRGQPDPPCGGRLNSKDAGYITSPGYPQDYPSHQNCEWIVYAPEPNQKIVLNFNPHFEIEKHDCKYDFIEIRDGDSESADLLGKHCGNIAPPTIISSGSMLYIKFTSDYARQGAGFSLRYEIFKTGSEDCSKNFTSPNGTIESPGFPEKYPHNLDCTFTILAKPKMEIILQFLIFDLEHDPLQVGEGDCKYDWLDIWDGIPHVGPLIGKYCGTKTPSELRSSTGILSLTFHTDMAVAKDGFSARYYLVHQEPLENFQCNVPLGMESGRIANEQISASSTYSDGRWTPQQSRLHGDDNGWTPNLDSNKEYLQVDLRFLTMLTAIATQGAISRETQNGYYVKSYKLEVSTNGEDWMVYRHGKNHKVFQANNDATEVVLNKLHAPLLTRFVRIRPQTWHSGIALRLELFGCRVTDAPCSNMLGMLSGLIADSQISASSTQEYLWSPSAARLVSSRSGWFPRIPQAQPGEEWLQVDLGTPKTVKGVIIQGARGGDSITAVEARAFVRKFKVSYSLNGKDWEYIQDPRTQQPKLFEGNMHYDTPDIRRFDPIPAQYVRVYPERWSPAGIGMRLEVLGCDWTDSKPTVETLGPTVKSEETTTPYPTEEEATECGENCSFEDDKDLQLPSGFNCNFDFLEEPCGWMYDHAKWLRTTWASSSSPNDRTFPDDRNFLRLQSDSQREGQYARLISPPVHLPRSPVCMEFQYQATGGRGVALQVVREASQESKLLWVIREDQGGEWKHGRIILPSYDMEYQIVFEGVIGKGRSGEIAIDDIRISTDVPLENCMEPISAFAGENFKVDIPEIHEREGYEDEIDDEYEVDWSNSSSATSGSGAPSTDKEKSWLYTLDPILITIIAMSSLGVLLGATCAGLLLYCTCSYSGLSSRSCTTLENYNFELYDGLKHKVKMNHQKCCSEA
Q: B1 was tested. Which “glycan array binding signal (z-score)” value [1] did it give?
A: -0.709

Q: And the “glycan array binding signal (z-score)” value [2]?
A: -0.794

Q: And the “glycan array binding signal (z-score)” value [3]?
A: -0.481

Q: And the “glycan array binding signal (z-score)” value [4]?
A: -0.173

Q: And the “glycan array binding signal (z-score)” value [5]?
A: 0.119

Q: What about the “glycan array binding signal (z-score)” value (GlcNAc(b1-6)GalNAc) of the same binder?
A: -0.179

Q: And the “glycan array binding signal (z-score)” value (GlcNAc3Prop(b1-4)GlcNAc)?
A: -0.453

Q: And the “glycan array binding signal (z-score)” value [6]?
A: -0.731

Q: And the “glycan array binding signal (z-score)” value (Kdn(a2-3)Gal(b1-3)GalNAc)?
A: -0.498

Q: What about the “glycan array binding signal (z-score)” value (Kdn(a2-3)Gal(b1-3)GlcNAc) of the same binder?
A: -0.115

Q: What about the “glycan array binding signal (z-score)” value (Kdn(a2-3)Gal(b1-4)Glc) of the same binder?
A: -0.063

Q: And the “glycan array binding signal (z-score)” value (Kdn(a2-3)Gal(b1-4)GlcNAc)?
A: -0.082

Q: And the “glycan array binding signal (z-score)” value [7]?
A: 0.559

Q: And the “glycan array binding signal (z-score)” value (Kdn(a2-6)Gal(b1-4)GlcNAc)?
A: -0.13

Q: And the “glycan array binding signal (z-score)” value [8]?
A: -0.286

Q: What about the “glycan array binding signal (z-score)” value [9] of the same binder?
A: -0.323

Q: What about the “glycan array binding signal (z-score)” value (Man(a1-2)Man(a1-3)Man) of the same binder?
A: -0.503

Q: What about the “glycan array binding signal (z-score)” value [10] of the same binder?
A: -0.496

Q: And the “glycan array binding signal (z-score)” value [11]?
A: -0.552

Q: What about the “glycan array binding signal (z-score)” value [12] of the same binder?
A: 0.34

Q: What about the “glycan array binding signal (z-score)” value [13] of the same binder?
A: -0.144

Q: What about the “glycan array binding signal (z-score)” value [14] of the same binder?
A: -0.668

Q: And the “glycan array binding signal (z-score)” value [15]?
A: -0.61

Q: And the “glycan array binding signal (z-score)” value (Man(a1-3)[Man(a1-6)]Man)?
A: -0.354

Q: What about the “glycan array binding signal (z-score)” value [16] of the same binder?
A: -0.461

Q: What about the “glycan array binding signal (z-score)” value [17] of the same binder?
A: -0.72

Q: And the “glycan array binding signal (z-score)” value [18]?
A: 0.082

Q: What about the “glycan array binding signal (z-score)” value [19] of the same binder?
A: -0.069

Q: And the “glycan array binding signal (z-score)” value (Man(a1-6)Man)?
A: -0.124

Q: And the “glycan array binding signal (z-score)” value (Man(b1-4)GlcNAc)?
A: -0.332
